Laboratory results from paper PMC6238599.
No constants are given. Whether binding was seen depends on the method and setting. For part of these data: Binding seen in cells or lysates may run through a third protein. Some entries that bind do so weakly or less than the wild type.

Chains of the proteins cited; added tags and fusions are not shown. Lines headed by an entry give the natural chain unless they say otherwise; changes in a name come on top. Residues count along the entry.
UniProt Q9H7E2: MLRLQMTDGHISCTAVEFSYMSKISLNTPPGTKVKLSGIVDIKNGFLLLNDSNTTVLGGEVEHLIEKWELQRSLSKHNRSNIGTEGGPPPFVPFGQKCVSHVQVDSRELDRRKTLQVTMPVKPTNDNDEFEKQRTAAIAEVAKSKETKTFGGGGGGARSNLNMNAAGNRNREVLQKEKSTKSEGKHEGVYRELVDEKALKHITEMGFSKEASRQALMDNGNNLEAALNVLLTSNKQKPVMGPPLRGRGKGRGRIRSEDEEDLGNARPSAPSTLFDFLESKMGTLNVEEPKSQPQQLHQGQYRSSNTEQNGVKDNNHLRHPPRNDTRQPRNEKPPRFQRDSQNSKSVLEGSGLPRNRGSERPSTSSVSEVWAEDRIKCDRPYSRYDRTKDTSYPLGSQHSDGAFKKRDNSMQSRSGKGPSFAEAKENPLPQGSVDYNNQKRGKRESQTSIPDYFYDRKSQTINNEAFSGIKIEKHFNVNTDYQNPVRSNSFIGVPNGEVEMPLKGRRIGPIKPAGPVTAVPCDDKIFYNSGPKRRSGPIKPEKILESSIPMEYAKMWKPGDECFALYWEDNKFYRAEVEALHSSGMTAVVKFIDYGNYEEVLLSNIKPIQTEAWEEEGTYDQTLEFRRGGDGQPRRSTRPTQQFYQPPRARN
UniProt Q93074: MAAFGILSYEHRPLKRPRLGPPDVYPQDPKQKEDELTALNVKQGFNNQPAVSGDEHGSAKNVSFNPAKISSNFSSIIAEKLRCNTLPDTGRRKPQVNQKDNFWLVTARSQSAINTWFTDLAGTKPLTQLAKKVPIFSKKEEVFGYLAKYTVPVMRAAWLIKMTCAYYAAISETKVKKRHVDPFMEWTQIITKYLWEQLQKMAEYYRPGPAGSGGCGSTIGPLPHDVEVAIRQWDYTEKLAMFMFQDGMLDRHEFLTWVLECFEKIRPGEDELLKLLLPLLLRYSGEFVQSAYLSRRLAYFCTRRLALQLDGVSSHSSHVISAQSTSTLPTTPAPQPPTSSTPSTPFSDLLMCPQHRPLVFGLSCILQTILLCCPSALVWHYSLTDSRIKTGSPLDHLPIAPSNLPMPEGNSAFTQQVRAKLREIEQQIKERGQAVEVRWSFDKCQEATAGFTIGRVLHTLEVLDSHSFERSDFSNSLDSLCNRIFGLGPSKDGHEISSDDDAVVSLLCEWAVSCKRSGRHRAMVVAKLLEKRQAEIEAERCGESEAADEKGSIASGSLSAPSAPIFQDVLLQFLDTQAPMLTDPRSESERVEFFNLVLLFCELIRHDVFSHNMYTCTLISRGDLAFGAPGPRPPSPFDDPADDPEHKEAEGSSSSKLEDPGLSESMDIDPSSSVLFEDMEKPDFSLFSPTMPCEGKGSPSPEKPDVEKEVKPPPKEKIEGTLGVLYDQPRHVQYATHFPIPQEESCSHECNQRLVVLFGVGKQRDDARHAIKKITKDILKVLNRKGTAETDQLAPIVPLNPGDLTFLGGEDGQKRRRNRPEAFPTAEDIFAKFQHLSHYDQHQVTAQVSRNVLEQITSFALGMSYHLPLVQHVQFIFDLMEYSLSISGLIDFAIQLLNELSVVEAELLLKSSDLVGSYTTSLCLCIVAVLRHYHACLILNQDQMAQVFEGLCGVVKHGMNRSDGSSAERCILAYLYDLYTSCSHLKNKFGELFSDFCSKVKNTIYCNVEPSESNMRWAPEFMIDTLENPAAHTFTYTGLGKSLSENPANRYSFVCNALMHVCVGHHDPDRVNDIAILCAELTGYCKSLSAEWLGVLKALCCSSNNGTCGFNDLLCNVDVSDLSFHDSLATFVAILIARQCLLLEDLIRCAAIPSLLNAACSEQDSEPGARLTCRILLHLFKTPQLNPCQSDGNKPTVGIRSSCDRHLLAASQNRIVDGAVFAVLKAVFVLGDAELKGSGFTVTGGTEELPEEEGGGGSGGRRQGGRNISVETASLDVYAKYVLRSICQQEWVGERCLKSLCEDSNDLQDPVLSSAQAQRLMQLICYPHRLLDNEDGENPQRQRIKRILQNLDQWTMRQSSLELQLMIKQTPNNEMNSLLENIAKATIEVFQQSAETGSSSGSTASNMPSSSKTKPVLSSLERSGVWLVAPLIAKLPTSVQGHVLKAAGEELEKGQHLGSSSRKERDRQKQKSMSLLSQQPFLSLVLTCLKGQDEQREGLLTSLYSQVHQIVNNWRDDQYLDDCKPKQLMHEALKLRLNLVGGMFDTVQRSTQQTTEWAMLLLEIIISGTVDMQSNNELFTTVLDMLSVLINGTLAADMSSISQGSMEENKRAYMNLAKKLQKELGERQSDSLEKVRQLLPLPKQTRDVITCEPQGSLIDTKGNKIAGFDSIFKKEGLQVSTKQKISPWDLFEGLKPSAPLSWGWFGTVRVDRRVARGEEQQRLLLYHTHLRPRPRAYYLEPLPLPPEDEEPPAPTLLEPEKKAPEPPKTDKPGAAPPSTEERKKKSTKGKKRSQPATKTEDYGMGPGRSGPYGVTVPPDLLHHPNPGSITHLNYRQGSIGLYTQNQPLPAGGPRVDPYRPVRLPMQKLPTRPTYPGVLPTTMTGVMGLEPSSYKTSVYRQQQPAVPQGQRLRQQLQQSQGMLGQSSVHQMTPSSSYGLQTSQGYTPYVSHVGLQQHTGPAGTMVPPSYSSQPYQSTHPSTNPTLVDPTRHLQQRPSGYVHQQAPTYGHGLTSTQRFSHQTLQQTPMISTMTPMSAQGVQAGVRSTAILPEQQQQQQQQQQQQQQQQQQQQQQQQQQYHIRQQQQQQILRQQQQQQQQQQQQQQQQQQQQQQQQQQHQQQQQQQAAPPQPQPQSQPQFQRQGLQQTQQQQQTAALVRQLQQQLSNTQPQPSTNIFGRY
UniProt Q16637, residues 91-151: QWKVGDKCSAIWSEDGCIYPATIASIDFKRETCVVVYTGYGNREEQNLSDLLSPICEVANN

Assays:
[1] = target: TDRD3 (endogenous) (human (endogenous in MCF-7 and HEK293T)) (UniProt Q9H7E2); assay: co-IP; HEK293T cells transiently transfected with FLAG-MED12 WT or mutants; total cell lysates, IP of endogenous TDRD3 with anti-TDRD3, Western blot with anti-FLAG
[2] = target: T1, Biotinylated MED12 peptide, residues 1,891-1,907, asymmetrically dimethylated at Arg1899 (human) (UniProt Q93074); assay: pull-down; biotinylated MED12 peptides (20 ug) immobilised on streptavidin agarose beads; 4 ug GST-Tudor protein in mild lysis buffer (50 mM Tris-HCl pH 7.5, 150 mM NaCl, 0.1% Nonidet P-40, 5 mM EDTA, 5 mM EGTA, 15 mM MgCl2), 4°C, 2 h; Western blot with anti-GST; both purified
T1 sequence (peptide, asymmetrically dimethylated Arg1899; biotin): SSYKTSVYRQQQPAVPQ

[3] = target: TDRD3 (endogenous) (human (endogenous in MCF-7 and HEK293T)) (UniProt Q9H7E2); assay: condition: only cells with CARM1 knocked down (doxycycline, 1 ug/ml); co-IP; nuclear extracts of MCF-7-Tet-on-shCARM1 cells treated with doxycycline (1 ug/ml) to knock down CARM1; IP with anti-TDRD3, Western blot with anti-MED12
[4] = target: TDRD3 (endogenous) (human (endogenous in MCF-7 and HEK293T)) (UniProt Q9H7E2); assay: co-IP; nuclear extracts of untreated MCF-7-Tet-on-shCARM1 cells (150 mM NaCl); IP with anti-TDRD3, Western blot with anti-MED12

binding [1] | binding [2] | Substance | other results
binds | – | FLAG-MED12 WT (full-length) (from UniProt Q93074-1 1-2177) | –
binds | – | FLAG-MED12-R1862K (from UniProt Q93074-1 1-2177) | –
– | binds weakly | GST-Tudor (SMN) (from UniProt Q16637 91-151) (domain or fragment) | –
– | binds | GST-Tudor (TDRD3) (from UniProt Q9H7E2 555-615) (domain or fragment) | –
– | – | MED12 (endogenous, human cells) (from UniProt Q93074-1 1-2177) | binding [3]: no binding; binding [4]: binds
